Here are results for 13 compounds from ChEMBL document CHEMBL1240510, “Synthesis, stereochemical separation, and biological evaluation of selective inhibitors of human MAO-B: 1-(4-arylthiazol-2-yl)-2-(3-methylcyclohexylidene)hydrazines” (J Med Chem, 2010).

pIC50: −log10 of the molar value.

The target of one experiment is T1, Amine oxidase [flavin-containing] B (Homo sapiens, UniProt P27338).
T1 sequence (P27338 whole entry): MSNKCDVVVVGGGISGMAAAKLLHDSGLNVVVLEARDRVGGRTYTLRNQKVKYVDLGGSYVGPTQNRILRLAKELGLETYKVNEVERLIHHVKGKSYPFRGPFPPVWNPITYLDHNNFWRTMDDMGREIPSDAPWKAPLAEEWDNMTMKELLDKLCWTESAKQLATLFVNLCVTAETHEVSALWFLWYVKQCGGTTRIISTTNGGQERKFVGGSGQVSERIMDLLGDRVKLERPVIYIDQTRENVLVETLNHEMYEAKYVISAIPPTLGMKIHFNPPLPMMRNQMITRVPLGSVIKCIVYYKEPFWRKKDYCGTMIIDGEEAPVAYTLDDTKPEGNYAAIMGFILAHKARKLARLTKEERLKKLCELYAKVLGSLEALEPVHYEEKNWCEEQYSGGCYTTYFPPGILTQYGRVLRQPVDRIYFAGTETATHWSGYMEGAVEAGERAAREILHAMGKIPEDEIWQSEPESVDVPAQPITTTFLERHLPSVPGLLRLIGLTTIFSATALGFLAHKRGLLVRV
In words: biochemical.
Usually pIC50 stands for −log10 of the IC50, conventionally taken in molar units. Take `CC1CCC/C(=N/Nc2nc(-c3ccc([N+](=O)[O-])cc3)cs2)C1` (centres undefined): the pIC50 is 6.39.

As for `C[C@@H]1CCC/C(=N/Nc2nc(-c3ccc(C#N)cc3)cs2)C1`, the pIC50 was 6.64.

Take `C[C@@H]1CCC/C(=N/Nc2nc(-c3ccccc3)cs2)C1`: the pIC50 is 6.09.

`CC1CCC/C(=N/Nc2nc(-c3ccc(C#N)cc3)cs2)C1` (centres undefined) showed a pIC50 of 6.92.

For the compound `COc1ccc(-c2csc(N/N=C3/CCCC(C)C3)n2)cc1` (centres undefined), the pIC50 is 5.35.

With `CC1CCC/C(=N/Nc2nc(-c3ccc(Cl)cc3)cs2)C1` (centres undefined), the pIC50 was 4.66.

In turn, `C[C@@H]1CCC/C(=N/Nc2nc(-c3ccc([N+](=O)[O-])cc3)cs2)C1` had a pIC50 of 7.07.

As for `COc1ccc(-c2csc(N/N=C3/CCC[C@@H](C)C3)n2)cc1`, the pIC50 was 5.51.

Regarding `C[C@@H]1CCC/C(=N/Nc2nc(-c3ccc(Cl)cc3Cl)cs2)C1`, the pIC50 was 5.43.

As to `C[C@@H]1CCC/C(=N/Nc2nc(-c3ccc(Cl)cc3)cs2)C1`, the pIC50 was 5.02.

In turn, `C[C@H]1CCC/C(=N/Nc2nc(-c3ccc([N+](=O)[O-])cc3)cs2)C1` gave a pIC50 of 6.68.

The compound `CC1CCC/C(=N/Nc2nc(-c3ccccc3)cs2)C1` (centres undefined) had a pIC50 of 5.65.

With `C[C@H]1CCC/C(=N/Nc2nc(-c3ccc(C#N)cc3)cs2)C1`, the pIC50 was 6.38.

The target of the next experiment is T2, Amine oxidase [flavin-containing] A (Homo sapiens, UniProt P21397).
T2 sequence (P21397 whole entry): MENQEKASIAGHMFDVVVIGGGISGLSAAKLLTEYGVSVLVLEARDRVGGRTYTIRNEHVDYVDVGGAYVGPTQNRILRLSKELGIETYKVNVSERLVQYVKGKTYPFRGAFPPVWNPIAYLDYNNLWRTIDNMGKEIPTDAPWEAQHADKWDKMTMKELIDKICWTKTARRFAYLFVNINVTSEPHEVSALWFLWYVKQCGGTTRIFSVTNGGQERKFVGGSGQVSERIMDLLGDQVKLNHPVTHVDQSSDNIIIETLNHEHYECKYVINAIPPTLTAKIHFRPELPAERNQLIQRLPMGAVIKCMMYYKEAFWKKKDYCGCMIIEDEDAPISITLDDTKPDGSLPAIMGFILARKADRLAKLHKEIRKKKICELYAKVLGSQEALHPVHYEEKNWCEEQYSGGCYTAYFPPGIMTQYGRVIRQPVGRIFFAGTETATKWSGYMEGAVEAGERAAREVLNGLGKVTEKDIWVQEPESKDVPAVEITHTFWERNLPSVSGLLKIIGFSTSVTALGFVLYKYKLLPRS
The experiment in a line: biochemical. It counts as cell-based, BTI-TN-5B1-4.
In turn, `C[C@H]1CCC/C(=N/Nc2nc(-c3ccc(C#N)cc3)cs2)C1` gave a negative-log IC50 (pIC50) of 4.77.
